# Measured values: PubChem BioAssay (NCI)
#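 Briefly, cells in 96-well plates were exposed to five compound concentrations for 48 h, and endpoints were estimated by linear interpolation. GI50 = concentration required for 50% inhibition of growth. The concentration for full growth arrest is given as TGI.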
# Tested on: NCI-H322M lung
# Assay: growth of human tumour cells (NCI), 48 h
SMILES,GI50,TGI
Cc1ccc(C(=O)Nc2cc(-n3ccnc3C)cc(C(F)(F)F)c2)cc1C#Cc1cnc2cccnn12,7.74 µM,> 29.3 µM
C[C@@H]1CN(c2ccc3ncc(C#Cc4cncc(C(=O)Nc5ccc(CN6CCN(C)CC6)c(C(F)(F)F)c5)c4)n3n2)C[C@@H](C)O1,0.343 µM,0.926 µM
CN(C(=O)c1ccc(C(C)(C)C)cc1)c1sc2c(c1C#N)CCC(=O)C2,13.7 µM,38.1 µM
O=C(/C=C/c1ccc(Br)cc1)c1nc2ccccc2n1Cc1ccc(Br)cc1,> 100 µM,> 100 µM
